Laboratory results taken from US20110008356A1 (published 2011).

Molecular target: T1, Human IL-17RA:Fc (human, UniProt Q96F46 33-320)
T1 construct: extracellular domain; Prepared essentially as in Yao 1995 Immunity; captured on the SPR chip by goat anti-human IgG Fc antibody; also called huIL-17RA:Fc; human IL-17RA:Fc fusion protein; not shown: Fc region of human IgG
Test: SPR (BIAcore 3000), receptor:Fc captured by anti-human Fc, cytokine as analyte, koff/kon, 1:1 Langmuir fit
Method: The binding affinities of IL-17A and IL-17F to the extracellular domains of human IL-17RA and human IL-17RC fused to the Fc region of human IgG were determined by surface plasmon resonance (BIAcore™) and cell binding analyses. Surface Plasmon Resonance kinetic analysis was performed using a BIAcore 3000™ instrument (Biacore, Inc., Piscataway, N.J.) run at 25° C. To prepare the chip surface, a goat-anti-human IgG Fc gamma-specific capture antibody (Jackson ImmunoResearch, West Grove, Pa.) was immobilized on two flow cells of either a CM4 or CM5 chip following the manufacturer's instructions. 100-300 response units of either human IL-17RA:Fc or human IL-17RC:Fc proteins were captured on one of the two flow cells while the other flow cell was used as a control. Eight concentrations of the analytes (human and murine IL-17A and IL-17F) were injected over the test and control flow cells in the IL-17RA range of 0.041-1500 nM (except for human IL-17F binding to human IL-17RA:Fc which was used at a higher IL-17RA range of 46.9-6000 nM) and allowed to associate for 3-5 minutes and dissociate for 10-30 minutes. Kinetic runs were performed in running buffer (10 mM Hepes, 150 mM NaCl, 3 mM EDTA, 0.005% P-20) with 100 ug/ml BSA added, at a flow rate of IL-17RA of 50 ul/min. […]

- Kd: 0.5 nM
B1: Human IL-17A (ligand)
chain: not shown
notes: Bought reagent; also called huIL-17
